# Laboratory results: the supplement of paper PMC3334620
# In all, about 33,000 sequences were measured (“E-score (-0.5 to 0.5)”: median about -0.01, highest 2% from about 0.26 on). The list shows a part of the results.
# Molecular target: Ste12 (UniProt P13574)
# Assay: PBM E-score (8-mer binding enrichment) (E-score (-0.5 to 0.5)); higher = stronger / more preferred TF binding; most listed sequences are background and not binding sites
# Conditions: protein concentration: 200 nM; construct: GST-DNA-binding domain
# Method in brief: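 Bound GST-tagged yeast transcription factors, applied at about 100-200 nM to double-stranded universal all-10-mer Agilent arrays, were detected with fluorescent anti-GST. Scans were normalised with masliner. A modified Wilcoxon-Mann-Whitney statistic, the E-score, was assigned to each ungapped eight-base word pooled with its reverse complement by the Universal PBM Analysis Suite.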
row,Sequence,PBM E-score
1,AACACTAA,0.0467
2,AACAACTG,0.0941
3,GGAAATGA,0.195
4,GATAAGGA,0.176
5,CAGATCGA,0.0171
6,ATGTCGGG,0.178
7,TGGCTGAA,0.0635
8,AGGCCGAG,0.0166
9,ATCTCTAC,0.0471
10,CACTGCCG,-0.0293
11,GACTTTAA,0.114
12,AGCCTGTG,-0.103
13,ACATCGGA,0.102
14,GTCATGCA,-0.106
15,CCCCCACG,-0.14
16,CAGTGCTA,-0.204
17,CTTCCTGC,-0.121
18,CTATAACC,-0.0374
19,CCATGCGG,-0.194
20,AGTTATTA,0.121
21,AAATTAAG,0.138
22,ACTGCGCC,-0.0582
23,ATGGAACC,0.00778
24,AAGTAGCA,0.0754
25,CCTGTCAG,-0.0127

row,Sequence,PBM E-score
1,ACGGGTCT,-0.211
2,AGGATTTC,-0.0183
3,GAAGGGCA,-0.0977
4,CAGTCACC,-0.126
5,AAAATACA,0.143
6,CGAATAGC,-0.159
7,GTCCGTTA,0.016
8,ACCTTGTG,-0.0411
9,ATAACAAA,0.252
10,ACAACTTA,0.053
11,AGACAGGG,-0.168
12,GTTCAACA,-0.0805
13,AAACACCA,0.122
14,ACGTAGAA,0.0901
15,TGAATCAA,0.227
16,ATCATCTC,0.0683
17,CTAGGTCA,-0.182
18,ATCGCTGG,-0.242
19,ACGGCCCA,-0.0919
20,CAGTCTAG,-0.167
21,AGTTTCCG,0.148
22,ATTGGGCA,-0.137
23,GGTTCCAC,-0.0251
24,CGCCCGGA,-0.12
25,CACTGCAA,-0.0732

row,Sequence,PBM E-score
1,CCATAAGG,-0.0978
2,AATCGGCG,-0.0488
3,TAAGGTCA,0.0255
4,ACGTCGCT,-0.241
5,GCGAAGGA,-0.064
6,AGGACTTG,-0.285
7,GCCCCAGC,-0.0932
8,AAGTTCCC,-0.152
9,GTATAGGA,-0.0378
10,CCCATCAA,0.241
11,TGCTGCCA,0.0489
12,CACCTTCC,0.0254
13,GAGAACAA,0.141
14,ACTGACGC,-0.185
15,AAAGTCTA,-0.0308
16,ATTCCACA,0.268
17,ACTGCTAA,-0.0314
18,ATAGTGCA,0.0969
19,AGCTCACA,-0.203
20,CACTAGAC,-0.0669
21,AGCTTTAT,0.0598
22,GACATTGA,0.051
23,AAATAGCA,-0.119
24,CTCGCGGA,-0.0624
25,CCATCCAG,-0.103

row,Sequence,PBM E-score
1,ATTTCCAA,0.0107
2,GGATCCTA,-0.188
3,AGATGGGG,-0.0563
4,AACTTAGA,0.081
5,AGCCATGC,-0.0768
6,CGTCTGGA,-0.149
7,ACGAGCGT,-0.254
8,ACAAAGGT,-0.0049
9,ACAAACGT,0.0212
10,ACCCCTAA,-0.135
11,CGAGCGCC,-0.11
12,AGCTGAGG,-0.229
13,CGAGGACC,-0.205
14,CCGGTTCG,-0.0907
15,ACACACAA,0.191
16,CTAACGAG,-0.0274
17,CCTGAACG,-0.0912
18,GATGCAGA,-0.196
19,AGGCCCCA,-0.14
20,CCAACCGA,0.0461
21,CTGAGCTC,-0.171
22,CGGGGAGA,0.0611
23,CCCTAAAG,-0.119
24,CACCCTAC,-0.0789
25,CTGGCGCC,-0.0481

row,Sequence,PBM E-score
1,CGTGATCC,-0.0313
2,CTGCCTTA,-0.117
3,ATCGGATA,0.212
4,CACATTGC,0.112
5,GCATATAA,0.0613
6,CTCGCTCA,0.061
7,CTCCGCAG,0.135
8,CTTCATTC,0.0983
9,ATATCTGG,-0.0736
10,ACTACGAC,-0.0122
11,TAAATCCA,0.00822
12,ATACGTGG,-0.0972
13,GGTTTGAC,-0.0297
14,CGTAGAAG,-0.0126
15,CTAGAGAA,0.0303
16,CTTAGAGA,-0.197
17,GGAAGCAC,-0.109
18,AGGGGAAT,0.151
19,CGACTCAC,-0.179
20,CATATCCC,0.0983
21,CGTACCTA,-0.0858
22,CGCAAAAG,-0.124
23,TATTGCAA,0.0855
24,GAGGATGC,-0.095
25,GATGCCCA,-0.0158

row,Sequence,PBM E-score
1,CAAAAGAC,0.0341
2,ACTATATG,-0.0612
3,TTAGTGAA,0.191
4,AGAATCGG,-0.109
5,CAAGGCCC,-0.154
6,ATGTAGCA,0.0638
7,TAAAGTCA,0.241
8,TACCAGGA,0.0462
9,AACCTCAG,-0.146
10,AAGCAAGG,-0.131
11,ATCCGATG,0.277
12,ATCGGTGG,-0.0711
13,GGGGGCAC,-0.14
14,GATCTGGC,-0.0208
15,CAGAGCAC,0.0445
16,CGCACGCG,-0.104
17,GAATGGGC,0.152
18,ACTAAAGG,-0.0901
19,ATTCACAA,0.131
20,CCCCTTCC,-0.0135
21,AGTGAACT,-0.00261
22,GTCCCCTA,-0.0692
23,CATACGAA,-0.0391
24,CTTCCCGC,0.0526
25,GAGTTGAA,0.0969

row,Sequence,PBM E-score
1,AATAAATC,0.086
2,CCTAATCC,-0.116
3,AAAAGGCG,0.00864
4,GATAAGGC,0.0186
5,CGAAGGCC,-0.229
6,AGAGCGGG,-0.0296
7,AACTGGCT,-0.208
8,AGGGCCCA,-0.148
9,ACCCATCA,0.0516
10,GCGTATCC,-0.115
11,CAAGTGTG,-0.056
12,AAGGGGCT,-0.111
13,GTGCTTGA,-0.169
14,CCCACGCG,-0.0503
15,CGAACACG,-0.0926
16,ACCCATTA,0.0332
17,CGGTACGA,-0.0822
18,GGCTTGGA,-0.192
19,CCGATGCG,-0.0377
20,GGTGACCA,-0.16
21,AGTCGTAT,-0.124
22,CGACCCTA,-0.0581
